Source: the supplement of paper PMC11417369
The list shows a part of the results.

test system: PfAP2-HC AP2 domain (GST-tagged); assay: gcPBM binding intensity (ln(normalized median fluorescence intensity)); higher = stronger DNA binding
Procedure, shortened: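 An Agilent 4 × 180k array of primer-extended double-stranded 36-bp intergenic genomic probes, with negative controls, was incubated for 1 h with GST-tagged P. falciparum DNA-binding domains expressed in E. coli. Alexa488 anti-GST antibody detected bound protein, scanned at 488 nm. Binding intensity is the highest Masliner-normalised natural-log median intensity across replicate spots of either probe orientation.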

Sequence	gcPBM binding intensity (ln)
AGAATAGAATAAAAAACACACATTTACAACATTATT [CACACA_site3894]	10
GTATTTAGATGATTAACACACATATGTGTATTAATA [CACACA_site6733]	9.79
ATATATATTATTGAATGTACATAATTATTTAATAGT [XGTACX_site4971]	9.75
ATATATTCACGTTAATGTACACATAATAAATTATAT [XGTACX_site5481]	9.66
AATTATATTGGTTGTAGTACTAAAAGTAAGTTAATG [XGTACX_site33]	9.87
TATTCACTGATATGTTGTACATAAAAAAAATTAAAT [XGTACX_site6128]	9.47
CACGCACGCACATACACACACATACACATATAAATA [CACACA_site6907]	10.1
ATGTTGTTCATAAATATATTATTTTTAAATGTACAA [GTGCAC_negctrl_site507]	9.43
AAAAAAAAAAAAAAAAGTACATATATTATATATATA [XGTACX_site2983]	9.45
TGAAAAAAGAAAAATACACACATATAATATAATATA [CACACA_site2255]	9.8
TTTTTTATATTGATATTTATTAAATATGAAATGTTA [GTGCAC_negctrl_site405]	9.29
AATAAAATATAAGGGGGTACGGAGAAAGGATACTAT [XGTACX_site7733]	9.99
TTATATAAGATATTTCGTACACATTCAAAAATTATG [XGTACX_site7375]	9.51
TGTCTTTATATATATTTATTTTTTAGTATTACATAA [CACACA_negctrl_site21]	9.76
ATTTTCATATTTTTATGTACATATTATAAGAATATA [XGTACX_site3691]	9.63
TATCTTTTTTTTAATACACACAAATTTATGAAAGTA [CACACA_site7879]	9.38
ATGGAATATTTCATGATTTTTTTAATTTTTTTATTG [XGTACX_negctrl_site55]	9.5
ACAAAACATATATTCTGTACATATATAATGGTGACT [XGTACX_site6796]	9.77
TTTATATCTTATTATAGGAAAATGAATATTTTCTCT [TGCATGCA_negctrl_site478]	9.31
AAGAAAATATAAATATGTACTTAATAATTTATTTAT [XGTACX_site8100]	9.47
AAAAAAGAGGGATACACACAAACATATATATATATA [CACACA_site2243]	9.94
AAAATAAAAAGAAATTGTACGTATAATAATATATTT [XGTACX_site7593]	9.84

Sequence	gcPBM binding intensity (ln)
TTTATTTTAAAATTTACACACAAAAGGATTTATAGA [CACACA_site2338]	9.5
TATATTAATTAACAGTGTACAAAAAAAAATAAAAAA [XGTACX_site3702]	9.84
TATTAAAATAACATACGTACATAAGTATATAAAAAA [XGTACX_site1769]	9.72
AGGATACACGGACACACACACATATATATATATATA [CACACA_site4654]	10.6
TTTATTCCAGTATTCACACACGAATAACCACATAAC [CACACA_site5104]	9.99
ATAATTCTTTATTATAGTACACAAACTTTCAAAACA [XGTACX_site3597]	9.42
CTATACATATTATATAGTACTTTATTATTATGACTA [XGTACX_site1382]	9.6
TATATAAGAGGAAAAAGTACAGAAAAACAAAGAGAA [XGTACX_site2926]	9.81
TGTATTTATAGCAATACACACATAACAATAAATATA [CACACA_site3328]	9.79
GTGGTTATATATTAAGTGCATATTATAATTTTAAAC	9.52
AATATCTAAAATGTGTGTACATAATATTTTTAATAT [XGTACX_site3831]	9.56
ATAGATAAAAAATTATTTATTTAGAATTTTTATGTA [CACACA_negctrl_site400]	9.52
TGTATAAATAAATGCGTACACACTAATAAAAAAAAA [CACACA_site858]	9.91
TTATGTAAATAATTTTGTACTTAAATTATTATATAA [XGTACX_site1491]	9.42
CAACTTTTTGAAAATTGTACATGACATATATATATA [XGTACX_site260]	9.36
AAAAAAAATATGATGAGTACACAATAATACATGCAA [XGTACX_site6999]	9.93
AGAATTACTTAAAAAAGTACATAAAATTATTTAAAA [XGTACX_site2205]	9.55
AATATAAAAATGTTTACACACACACCCAAATATATT [CACACA_site2511]	10.2
ATTACATTTTTAATGCGTACTAAAAATGTATATAAG [XGTACX_site6384]	9.53
AATACACCCAGACACACACACAAAAAAAAAAAAAAA [CACACA_site513]	10.1
ATATATATATTAAATACACACATTTTTGATTAGGTT [CACACA_site3119]	9.76
AAAAGAGAAATGGGCACACACACACCGATTATATAT [CACACA_site4942]	11
